Assay results reported in PubChem BioAssay AID1347120 (National Center for Advancing Translational Sciences (NCATS), 2019).
Out of some 390,000 compounds screened, about 930 (0.24%) were called active. This list was built around the results that the source calls inconclusive (neither active nor inactive); the mix of calls is not that of the screen. Calls come from the whole dose curve; as a rule, active = well fitted activation curve with a large enough effect; inconclusive = small, poorly fitted or top-dose-only effect; inactive = no such curve, though single readings can be large or run the other way. Potencies beside an inconclusive call are fits to weak or partial responses and may not hold up.

Test: qHTS for Suppressors of FUS Proteinopathy: Primary screen using FUS-linked yeast assay; note: nearly all actives have a fitted effect of over 55% in size;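 for growth rescue (activation): plate controls were DMSO vehicle for no effect and reference control for full effect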
Details: S. cerevisiae FUS-expressing, OD600, 24 h; Potency: growth rescue; growth rescue (activation): at 76.6 µM (top of the series)
Method in brief: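 FUS-expressing yeast, raffinose-pregrown, induced in 2% galactose minimal medium at OD 0.005; compounds in a dilution series, 24hr at 30C. Growth restoration read as absorbance at 600 nm. CP55940 positive control, DMSO negative.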
Potency is the fitted concentration of half-maximal effect; tags give direction and shape of the fitted curve.

SMILES	Potency	growth rescue (activation)
Cc1ccc(-c2noc(C3CCCN(C(=O)c4cccc([N+](=O)[O-])c4)C3)n2)o1 (configuration not stated)	inconclusive: 31.6 µM [activator, partial curve, poor fit]	–
COc1ccc(CCNC(=O)CCc2cn(Cc3ccc(C)cc3)c3ccccc23)c(OC)c1OC	–	inactive: -0.167%
Cc1ccc2nc(CSc3nnc(-c4ccco4)n3-c3ccccc3)cc(=O)n2c1	–	inconclusive: 72.6% [activator]
COc1ccc(-c2noc(N3CCC(C(=O)N(C)c4cc(Cl)ccc4OC)CC3)n2)cc1	inconclusive: 28.2 µM [activator, single point]	–
CCN(CC)c1ccc(NC(=O)Nc2ccccc2C(F)(F)F)cc1	–	inactive: 23.6%
CCn1c(=NC(=O)c2cccc(N3C(=O)CCC3=O)c2)sc2c(C)ccc(OC)c21	inconclusive: 28.2 µM [activator, single point]	–
COc1cccc(-c2c(NC(=O)c3ccco3)n(-c3ccc(C)cc3)nc(C)c2=O)c1	–	inconclusive: 55.2% [activator]
CCOC(=O)C1C[C@@H](O)C=CC1=O (some centres not stated)	–	inactive: -9.33%
Cc1cc2oc(=O)cc(CN3CCc4ccccc43)c2cc1Cl	inconclusive: 28.2 µM [activator, partial curve, poor fit]	–
Cc1cccc(N2CCN(C(=O)C3CCN(S(=O)(=O)c4c(C)noc4C)CC3)CC2)c1C	inconclusive: 14.1 µM [activator, single point]	–
COc1ccc(OC)c(NC(=O)CSc2nc(O)cc(=O)n2CC(C)C)c1	inconclusive: 39.8 µM [activator, partial curve, poor fit]	–
CCC(C)(C)c1ccc(OCCCC[n+]2ccccc2)c(C(C)(C)CC)c1	–	inactive: 32.3%
COc1cc2nc(/C=C/c3ccc(N(C)C)cc3)sc2cc1SC	–	inactive: 29.3%
CCN(Cc1ccccc1)S(=O)(=O)c1ccc(C(=O)N(CCCN(C)C)c2nc3ccc(F)cc3s2)cc1	inconclusive: 35.5 µM [activator, single point]	–
CCOC(=O)c1cc(-c2ccc(N3CCOCC3)cc2)nn1-c1ccccc1C(=O)O	inconclusive: 8.91 µM [activator, single point]	–
Cc1ccccc1Nc1n[nH]c(=S)s1	–	inactive: -11.2%
COc1cc(-c2ccc3cc(OC)c(OC)c(OC)c3c2)cc(OC)c1OC	inconclusive: 25.1 µM [activator, partial curve]	–
CC1(C)CC(=O)CC2(C1)NCC(c1ccccc1Cl)c1c2[nH]c2ccccc12 (configuration not stated)	inconclusive: 22.4 µM [activator, single point]	–
Cc1nn(C)c(C)c1NC(=O)c1cc2nc(-c3ccco3)cc(C(F)(F)F)n2n1	–	inactive: 1.66%
N#Cc1ncc(C(F)(F)F)cc1Sc1ccc(N)cc1	–	inactive: 1.73%
[O-]/[N+](=C\c1ccc(OC(F)F)cc1)c1ccccc1	inconclusive: 10 µM [activator, single point]	–
Cc1cc(OCC(=O)N(Cc2ccc(N(C)C)cc2)C2CCS(=O)(=O)C2)cc(C)c1Cl (configuration not stated)	inconclusive: 35.5 µM [activator, single point]	–
Cc1cc(C(=O)CSc2nc(N)cc(N)n2)c(C)n1-c1cccc(C(F)(F)F)c1	inconclusive: 5.62 µM [activator, full curve]	–

SMILES	Potency	growth rescue (activation)
C[C@@H]1CCCCO[C@@H](CN(C)Cc2ccccc2)[C@@H](C)CN([C@H](C)CO)C(=O)c2cc(NC(=O)Nc3cccc4ccccc34)ccc2O1	inconclusive: 20 µM [activator, partial curve, poor fit]	–
Cc1ccc2c(c1)Oc1ccc(NC(=O)CCl)cc1C(=O)N2	–	inactive: 10.1%
O=C(Nc1cccc(-c2cn3ccccc3n2)c1)c1ccccc1	–	inactive: 22.5%
CCn1nc(NS(=O)(=O)c2ccc(NC(C)=O)cc2)c2cc3cc(C)ccc3nc21	inconclusive: 50.1 µM [activator, single point]	–
CCC(C)N(C(=O)CSc1nnc(COc2ccccc2F)n1N)C1CCS(=O)(=O)C1 (configuration not stated)	–	inactive: -3.4%
CSc1ccccc1OCc1cc(C(=O)NCCN2CCCc3ccccc32)no1	inconclusive: 8.91 µM [activator, partial curve]	–
COc1ncnc2c1ncn2CCCNCCCN1CCCC1=O	–	inactive: -10.6%
O=C(NCCCc1ccccc1)[C@H](CO)NC1(C(=O)NCCc2c[nH]c3ccccc23)CCCCC1	inconclusive: 14.1 µM [activator, partial curve]	–
Nc1ccc(C(=O)N2CCN(S(=O)(=O)c3ccc(Cl)cc3)CC2)cc1[N+](=O)[O-]	–	inconclusive: -21.5% [activator]
O=C(c1cccs1)N1CCN(c2ccc([N+](=O)[O-])cc2F)CC1	–	inactive: 6.32%
Cc1c(-c2nnc(SCC(=O)Nc3ccc(Cl)cc3)o2)nnn1-c1ccc(F)cc1	–	inactive: 17.2%
CCOc1cc(C(=O)N[C@@H](C)C(=O)N2CCC3(CC2)NCCc2[nH]cnc23)cc(OCC)c1OCC	–	inactive: -0.718%
CN1CCC(=NNc2ncnc3sc4c(c23)CCCC4)CC1	inconclusive: 28.2 µM [activator, single point]	–
CCN1CCSc2ccc(C(=O)NCc3ccccc3Br)cc21	inactive	–
O=C(Nc1nnc(-c2ccco2)s1)C1CCCCC1	–	inactive: -7.91%
CCOC(=O)C1CCCN(Cc2ccc(OCc3ccccc3)cc2)C1 (configuration not stated)	inconclusive: 0.891 µM [activator, full curve, poor fit]	–
CCOC(=O)c1sc2c(c1C)C(c1cccs1)C1=C(CCCC1=O)N2 (configuration not stated)	–	inactive: 5.29%
COC(=O)c1ccc([C@H]2Nc3ccc(S(=O)(=O)Nc4cccc(C)c4)cc3[C@H]3C=CC[C@H]32)cc1	inconclusive: 39.8 µM [activator, single point]	–
CC1(OC(=O)C2CCCC2)C(=O)C=C2C=C(c3ccsc3)N(Cc3ccc4c(c3)OCO4)C=C2C1=O (configuration not stated)	inconclusive: 28.2 µM [activator, single point]	–
CCCCOc1ccc(C(=O)N(Cc2ccco2)Cc2ccco2)cc1	inconclusive: 39.8 µM [activator, partial curve, poor fit]	–
COc1cc(/C=C2/C(=N)N3N=C(CC(=O)N4CCOCC4)SC3=NC2=O)ccc1OCc1ccc(F)cc1	inconclusive: 31.6 µM [activator, partial curve, poor fit]	–
CCC(C)NC(=O)Cn1c(=O)n(-c2ccccc2)c(=O)c2ccc(C(=O)NCc3ccco3)cc21 (configuration not stated)	inconclusive: 50.1 µM [activator, single point]	–
O=C(c1ccc(Cl)c(S(=O)(=O)N2CCc3ccccc32)c1)N1CCN(c2ccccc2O)CC1	inconclusive: 22.4 µM [activator, partial curve]	–

SMILES	Potency	growth rescue (activation)
CCCCNS(=O)(=O)c1ccc2nc(SCC(=O)Nc3ccccc3Cl)[nH]c2c1	inconclusive: 25.1 µM [activator, single point]	–
O=C(Nc1cc(C(F)(F)F)ccc1Cl)c1cnn(-c2ccccc2)c1-n1cccc1	–	inactive: -5.6%
CCOC(=O)C(C)Sc1cc(CS(=O)(=O)c2ccccc2)nc(-c2ccccc2)n1 (configuration not stated)	inconclusive: 28.2 µM [activator, single point]	–
CCOC(=O)c1sc(NC(=O)C2CC(=O)N(c3ccc(C)cc3)C2)nc1C (configuration not stated)	inconclusive: 39.8 µM [activator, partial curve, poor fit]	–
COc1ccc(NC(=S)N(CCc2c(C)[nH]c3ccc(C)cc23)Cc2cccs2)cc1	inconclusive: 50.1 µM [activator, single point]	–
O=C(Nc1ccccc1C(=O)OCC(=O)N1CCc2ccccc2C1)c1ccco1	inconclusive: 39.8 µM [activator, partial curve, poor fit]	–
COCCNc1nc2cc(-c3ccccc3)sc2c(=O)n1C	–	inactive: -1.44%
CCN(Cc1ccccc1)S(=O)(=O)c1ccc(F)c(C(=O)Nc2cc(C(F)(F)F)ccc2Cl)c1	–	inactive: 29.5%
CCCc1ccc(NC(=O)C2CCCN(c3cnccn3)C2)cc1 (configuration not stated)	inactive	–
CCN(c1ccccc1)S(=O)(=O)c1ccc(Cl)c(NC(=O)CN2C(=O)NC3(CCCC3)C2=O)c1	inconclusive: 50.1 µM [activator, single point]	–
O=C(CNc1ccc2ccccc2c1)N/N=C/c1ccc([N+](=O)[O-])o1	–	inactive: 25.3%
COc1cc2c(-c3ccc4cc[nH]c4c3)c(-c3ccc(C#N)cc3)oc(=O)c2cc1OC	inconclusive: 28.2 µM [activator, single point]	–
CCC1Oc2ccc(C)cc2N(CC(=O)N2CCN(c3ccccc3OC)CC2)C1=O (configuration not stated)	–	inactive: -3.15%
CN1C(=O)C(O)(CC(=O)/C=C/c2ccco2)c2cc(Br)ccc21 (configuration not stated)	inconclusive: 28.2 µM [activator, single point]	–
Cc1ccc(-n2ncc(C(=O)NCCN3CCN(C)CC3)c2C2CCN(C(=O)OC(C)(C)C)CC2)cc1	inconclusive: 28.2 µM [activator, partial curve, poor fit]	–
Nc1[nH]c(C(=O)c2ccccc2)c(-c2ccc(Cl)cc2Cl)c1C(=O)c1cccs1	–	inactive: 9.64%
C[C@@H](C(=O)Nc1nc(-c2ccccn2)cs1)N1C(=O)C2CCCCC2C1=O (some centres not stated)	inconclusive: 12.6 µM [activator, partial curve]	–
CS(=O)(=O)N(CC(=O)Nc1cc(Cl)ccc1Cl)c1ccccc1Cl	inconclusive: 50.1 µM [activator, partial curve, poor fit]	–
CCN(CC)CCN(CC)Cc1ccccc1Br	–	inactive: 16%
CSc1ncccc1C(=O)OCC(=O)N1CC(=O)Nc2ccccc21	inconclusive: 31.6 µM [activator, single point]	–
CC(=O)NC1(c2nnnn2CCOC(=O)Nc2ccc(Cl)cc2)CCCC1	inconclusive: 2.24 µM [activator, full curve, poor fit]	–
